Laboratory results: PMC10380293 (International Journal of Molecular Sciences, 2023)

Target: the molecule itself
Assay: asymmetrical flow field-flow fractionation (AF4); PCNA after 0 h at 37 °C, run at 25 °C in phosphate buffer pH 6.6 with NaCl, UV 280 nm, molecular weight estimated from a co-running size standard

B1: PCNA^C148S (unlabeled) (natural protein)
chain: not shown
notes: proliferating cell nuclear antigen (PCNA), human, disease-associated (ATLD2) variant C148S; C148S made by site directed mutagenesis in pET28b-PCNA; also called PCNA variant C148S; source: E. coli BL21(DE3), purified (nickel NTA, dialysed against PBS)
- stoichiometry N: 3
